Measurements published in the RNAGym collection of RNA variant scans (doi:10.1073/pnas.2313332121).
This sample is rich in variants without activity.

B1: TPR 5TU (parent)
chain: GGAUCUUCUCGAUCUAACAAAAAAGACAAAUCUGCCACAAAGCUUGAGAGCAUCUUCGGAUGCAGAGGCGGCAGCCUUCGGUGGCGCGAUAGCGCCAACGUUCUCAACUAUGACACGCAAAACGCGUGCUCCGUUGAAUGGAGUUUAUCAUG

Variants of: B1
Assay: polymerase ribozyme fitness, log enrichment relative to wild type (log ratio); higher = more active; in vitro selection for triplet polymerase activity
Outline: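 Each subunit of a heterodimeric triplet polymerase ribozyme was represented by a PCR-built, transcribed mutant library that underwent triplicate single-round in vitro selection with frozen incubation at −7 °C. Extended constructs were recovered by gel excision, streptavidin-bead capture and RT-PCR, and Illumina sequencing of input and output libraries kept genotypes with ≥10 input reads and ≥1 read per output. Fitness is the logarithm of genotype enrichment relative to wild-type enrichment, from inverse-variance-weighted replicate averages, with a logarithm base of 2.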

Which “polymerase ribozyme fitness (log ratio)” value does the source give for GGAUCUUCUCGAUCUAACAAAAAAGGCAAAUCUGCCACAAAGCUUGAGAGCAUCUUCGGUUGCAAAGGCGGCAGCCUUCGGUGGCGCUAUUGCGCCAACGUUCUCAACUAUGACACGCAAAACGCGUGCUCCGAUGAAUGGAGUUUAUCAUG [A26G A60U G65A G88U A91U U134A] here?
The value was ≤ -4.2.

For GGAUCUUCUCGAUCUAACAAAAAAGGCAAAUCUGCCAUAAAGCUUGAGAGCAUCUUCGGAUGCAGAGGCGGCAGCCUUCGGUGGCGCGAUAGCGCCAACGUUCUCAACUGUGACACGCAAAACGCGUGCUCCGUUGAAUGGAGUUUAACAUG [A26G C38U A110G U148A], which “polymerase ribozyme fitness (log ratio)” value is on record?
Its value is ≤ -4.2.

With GGAUCUUCUCGAUCUAACAAAAAAGGCAAAUCUGCCACAAAGCUUGAGAGCAUUUUCGGAUGCAGAGGCGUCAGCCUUCGGUGGCGCGCUAACGCCAACGUUCUCAACUAUGACACGCAAAACGCGUGCUCCGUUGAAAGGAGUUUAUCAUG [A26G C54U G71U A89C G92A U139A] as the variant, how does the “polymerase ribozyme fitness (log ratio)” value read?
Its value is ≤ -4.2.

With GGAUCUUCUCGAUCUAACAAAAAAGGCAAAUCUGCCACAAAGCUUGAGAGCAUCUUCGGAUGCAGAGGCGGCAGCCUUCGGUGGCGCGAUAGCGCCAACGUUCUCAACUAUGACGCGCAAAACGCGUGCUCCGUUGAAUGUAGUUUAUCAUG [A26G A115G G141U] as the variant, how does the “polymerase ribozyme fitness (log ratio)” value read?
The value was ≤ -4.2.

Which “polymerase ribozyme fitness (log ratio)” value does the source give for GGAUCUUCUCGAUCUAACAAAAAAGGCAAAUCUGCUACAAAGCUUGAGAGCAUCUUCGGAUGCACAGGCGGCAGCCUUCGGUGGCGCGAUGGCGCCAACGUUCUCAACUAGGACACGCAAAACGCGUGCUCCGUUGAAUGGAGUUUAUAAUG [A26G C36U G65C A91G U111G C149A] here?
The value was ≤ -4.2.

Which “polymerase ribozyme fitness (log ratio)” value does the source give for GGAUCUUCUCGAUCUAACAAAAAAGGCAAAUCUGCCACAAAGCUUGAGAGCAUCUUCGGAUGCAGAGGCGGCAGCCUUCGGUGGCGCGCUAGCGCCCACGUUCUCAACUAUGACACGCAAAACGCGUGCUCCGUUGAAUGGACUUUAUCAUG [A26G A89C A97C G143C] here?
Its value is ≤ -4.2.

With GGAUCUUCUCGAUCUAACAAAAAAGGCAAAUCUGCCACAAAGCUUGAGAGCAUCUUCGGAUGCAGAGGCGGCAGCCUUCGGUGGCGCGAUUGCGCCAACGUUCGCAACUAUGACACGCAAACCGCGUGCUCCGUUGAAUGGAGUUUAUCAUG [A26G A91U U104G A122C] as the variant, how does the “polymerase ribozyme fitness (log ratio)” value read?
Its value is ≤ -4.2.

Which “polymerase ribozyme fitness (log ratio)” value does the source give for GGAUCUUCUCGAUCUAACAAAAAAGGCAAAUCUGCCACAAAGCUUGGGAGCAUCUUUGGAUGCAGAGGCGGCAGCCUUCGGUCGCGCGAUAGCGCCAACGUUCUGAACUAUGACACGCAAAACGCGUGCUCUGUUGAAUGGAGUUUAUCAUG [A26G A47G C57U G83C C105G C132U] here?
Its value is ≤ -4.2.

With GGAUCUUCUCGAUCUAACAAAAAAGGCAAAUCUGCCACAAAGGUUGAGAGCAUCUUCGGAUGCUGAGGCGGCAGCCUGCGGUGGCGCGAUAGCGCCAACGUUCUCAACUAUGACACGGAAUACGCGUGCUCCGUGGAAUGGAGUUUAUCGUG [A26G C43G A64U U78G C118G A121U U135G A150G] as the variant, how does the “polymerase ribozyme fitness (log ratio)” value read?
Its value is ≤ -4.2.

Which “polymerase ribozyme fitness (log ratio)” value does the source give for GGAUCUUCUCGAUCUAACAAAAAAGGCACAUCUGCCACAAAGCUUGAGAGAAUCUUCGGAUGCAGCGGCGGCAGCCUUCGGUGGCGGGAUAGCGCCAACGUUCUCGGCUAUGACACGCAAAACGCGUGCUCCGUUGAAUGUAGUUUAUCAUG [A26G A29C C51A A66C C87G A106G A107G G141U] here?
Its value is ≤ -4.2.

With GGAUCUUCUCGAUCUAACAAAAAAGGCAAAUCUGCCACAAAGCUUGUGAGCAUCUUCGGAUGCAGAGGCGGCAGCCUUCAGUGGCGCGAUAGCGCUAACGUUCUCAACUAUGACACGCAAAACGCGUGCUCCGUUGGAUCGAGUUUAUCAUG [A26G A47U G80A C96U A137G G140C] as the variant, how does the “polymerase ribozyme fitness (log ratio)” value read?
Its value is ≤ -4.2.

With GGAUCUUCUCGAUCUAACAAAAAAGGCAAAUCUGCCACAAAGCUUGAGAGCAUCUUCGGUUGCAGAGGCGGCAGCCUUCGGUGGCGCGAUAGCGCCAACGUUCUCAACUAUGACACGUAAAACGCGUGCUCCGAUGAAUGGAGUUGAUCAUG [A26G A60U C118U U134A U146G] as the variant, how does the “polymerase ribozyme fitness (log ratio)” value read?
The value was ≤ -4.2.

With GGAUCUUCUCGAUCUAACAAAAAAGGCAAAUCUGCCACAAAGCUUGAGAGUAUCAUCGGAUGCAGAGGCGGCAGCCUUCGGUGGAGCGAUAGGCCCAACGUUCUCACCUAUGACACGCAAAACGCGUGCUCCGUUGAAUGGAGUUUAUCAUG [A26G C51U U55A C85A C93G G94C A107C] as the variant, how does the “polymerase ribozyme fitness (log ratio)” value read?
The value was ≤ -4.2.

For GGAUCUUCUCGAUCUAACAAAAAAGGCCAAUCUGCCACAAAGCUUGAGAGCAUCUUCGGAUGCAGAGGCGGCAGCCCUCGUUGGCGCGAUAGCGCUAACGUUCUCAACUAUGACACGCAAAACGUGUGCUCCGUUGAAUGUAGUUUAUCAUG [A26G A28C U77C G81U C96U C125U G141U], which “polymerase ribozyme fitness (log ratio)” value is on record?
Its value is ≤ -4.2.

With GGAUCUUCUCGAUCUAACAAAAAAGGCAACUCUGCCACAAAGCUUGAGAGCAACUUCGGAUGCAGAGGCGGCAGCCUUCGGUGGCGCGAUAGCGCCAACGUUCUCAACUAUGACACGCAAAACGCGUGCUCCGUUGAAUGGAGUUUAUCAUG [A26G A30C U53A] as the variant, how does the “polymerase ribozyme fitness (log ratio)” value read?
The value was ≤ -4.2.

For GGAUCUUCUCGAUCUAACAAAAAAGGCAAAUCUGCCACAAGCCUUGAGAGCAAUUUCGGAUGCGGAGGCGGCAGCCUUCGGUGGCGCGAUAGCACCAACGUGCUCAACUAUGACAUGCAAAACGCGUGCUCCGUUGAAUGGAGUUUAUCAUG [A26G A41G G42C U53A C54U A64G G94A U102G C116U], which “polymerase ribozyme fitness (log ratio)” value is on record?
Its value is ≤ -4.2.

Which “polymerase ribozyme fitness (log ratio)” value does the source give for GGAUCUUCUCGAUCUAACAAAAAAGGCAAAUCUGCCACAACGCUUGAGAGCAUCUUCGGAUGUAGAGGCGGCAGCCUACGGUGGCGCGAUAGCGCCAACGGUCUCAACUAUGACACGCAAGUCGCGUGCUCCGUUGAAUGGAGUUUAUCAUG [A26G A41C C63U U78A U101G A121G A122U] here?
The value was ≤ -4.2.

With GGAUCUUCUCGAUCUAACAAAAAAGGCAAAUCUGCCACAAGGCUUGAGAGCAUCUUCGAAUGCAGAGGCGGCAGCCUUCGGUGGCGCGAUAGCGCCAACGUUCUCAACUAUGACACGCAAAACGCGUGCUCCGUUGAAUGGAGUUUCUCAUG [A26G A41G G59A A147C] as the variant, how does the “polymerase ribozyme fitness (log ratio)” value read?
Its value is ≤ -4.2.

For GGAUCUUCUCGAUCUAACAAAAAAGGCAAAUCUGCCACUAAGCUUGAGAGCAUCUUCGGAUGCAGAGGCGGCAGCCUUCGGUGGCGCGAUAGAGCCAACGUUCUCAACUAUGACACGCAAAACGCGUGCUCCGGUGAAUGGAGUUUAUCAUG [A26G A39U C93A U134G], which “polymerase ribozyme fitness (log ratio)” value is on record?
The value was ≤ -4.2.
